Results taken from PubChem BioAssay AID624417 (National Center for Advancing Translational Sciences (NCATS), 2012).
The whole screen tested about 410,000 compounds, of which about 6,400 (1.6%) were called active. The shares of active, inactive and inconclusive entries below differ from those in the screen. The call rests on the fitted dose curve; in most records, active means well fitted inhibition curve with a large enough effect; inconclusive means small, poorly fitted or top-dose-only effect; inactive means no such curve, though single readings can be large or run the other way. Potencies of inconclusive entries are left out as doubtful fits.

molecular target: Glucagon-like peptide 1 receptor (Homo sapiens) (UniProt P43220); assay: qHTS of GLP-1 Receptor Inverse Agonists (Inhibition Mode); conditions: HEK293 GLP-1R CRE-luciferase, luminescence, 24 h, GLP-1R form is constitutively active; series mostly up to 38.3 µM; further: nearly all actives have a fitted effect of over 55% in size
Chain of UniProt P43220 (P43220 whole entry, looked up): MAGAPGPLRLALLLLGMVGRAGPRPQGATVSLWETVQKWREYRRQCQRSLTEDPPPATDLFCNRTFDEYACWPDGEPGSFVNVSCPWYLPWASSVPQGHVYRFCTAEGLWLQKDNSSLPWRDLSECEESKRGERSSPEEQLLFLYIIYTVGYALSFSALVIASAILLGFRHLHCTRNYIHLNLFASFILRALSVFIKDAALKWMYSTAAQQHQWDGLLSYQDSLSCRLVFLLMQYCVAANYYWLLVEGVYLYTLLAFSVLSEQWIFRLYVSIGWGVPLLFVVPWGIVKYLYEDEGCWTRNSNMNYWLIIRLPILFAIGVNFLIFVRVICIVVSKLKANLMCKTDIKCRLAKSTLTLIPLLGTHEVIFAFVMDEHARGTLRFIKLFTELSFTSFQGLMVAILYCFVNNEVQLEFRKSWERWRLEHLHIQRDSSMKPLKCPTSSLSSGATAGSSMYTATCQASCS
Method in brief: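 GLP-1R inverse agonism mode: basal reporter luminescence in engineered HEK293 cells measured after one day of compound exposure at 37 deg C, with a 12 min room-temperature detection step.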
Potency means the concentration at half of the fitted maximal effect; tags describe the fitted curve by direction and shape.

| SMILES | Potency |
| --- | --- |
| C[C@@H]1CN([C@@H](C)CO)C(=O)c2cc(NC(=O)Nc3ccc4c(c3)OCO4)ccc2O[C@H]1CN(C)S(=O)(=O)c1ccc(F)cc1 | inconclusive [inhibitor, single point] |
| O=C(c1ccc(F)cc1)N1c2ncnn2C2(CCCCC2)[C@@H]2CCCC[C@@H]21 | inconclusive [inhibitor, single point] |
| O=C(/C=C/c1cccc(C(F)(F)F)c1)OCC(=O)N1CCN(c2ccccc2)CC1 | inconclusive [inhibitor, single point] |
| NC(=O)c1cccc(Nc2nc(C(N)Cc3ccc(C(F)(F)F)cc3)cs2)n1 (stereo unspecified) | inconclusive [inhibitor, single point] |
| Cc1ccc(-c2nsc(NC(=O)c3oc4cc(C)c(Cl)cc4c3C)n2)cc1 | inactive |
| O=C(NCC(=O)N1CCN(C(c2ccccc2)c2ccccc2)CC1)c1ccc(Br)o1 | inconclusive [inhibitor, partial curve, poor fit] |
| NC(=O)[C@H]1CC2(CC(c3cccc(NC(=O)CC(c4ccccc4)c4ccccc4)c3)=NO2)CN1C(=O)CC(c1ccccc1)c1ccccc1 (stereo partly specified) | inconclusive [inhibitor, partial curve, poor fit] |
| COc1ccccc1N(CN1CCCC1=O)C(=O)c1c(F)cccc1Cl | inconclusive [inhibitor, full curve, poor fit] |
| CC1CCCN(S(=O)(=O)Cc2ccc(Cl)cc2)C1 (stereo unspecified) | inactive |
| C[C@@H](C(=O)Nc1ccc2ccccc2c1)[C@H]1C[C@]1(C)[C@H](NS(=O)(=O)c1ccccc1)c1ccccc1 | inconclusive [inhibitor, full curve] |
| O=C(N/N=C/C(Br)=C/c1ccccc1)c1ccncc1 | inconclusive [inhibitor, single point] |
| Cc1ccccc1C(=O)NCc1ccc2c(c1)CCN2C(=O)c1ccccc1 | inconclusive [inhibitor, single point] |
| O=Cc1cn(CCOc2ccc(F)cc2)c2ccccc12 | inconclusive [inhibitor, single point] |
| O=C(N/N=C/c1cccs1)c1cc(-c2cccc3ccccc23)n[nH]1 | inconclusive [inhibitor, single point] |
| CN(C(=O)c1cc2c(cc1Br)OCO2)c1cccc2ccccc12 | inconclusive [inhibitor, partial curve, poor fit] |
| O=C(N/C(=C\c1ccc([N+](=O)[O-])cc1)C(=O)N1CCCCC1)c1ccccc1Br | inconclusive [inhibitor, partial curve, poor fit] |
